{"source": "PubChem BioAssay AID1347073", "about": "(National Center for Advancing Translational Sciences (NCATS), 2019)", "note": "Out of some 45,000 compounds screened, about 200 (0.44%) were called active. About 7% were inconclusive and are not listed. Calls come from the whole dose curve; as a rule, active = well fitted activation curve with a large enough effect; inconclusive = small, poorly fitted or top-dose-only effect; inactive = no such curve, though single readings can be large or run the other way. This is one part of the list.", "data": [{"experiment": "qHTS of TDP-43 Inhibitors: NCGC Sytravon Library Screen; note: 0% is about no effect; nearly all actives have a fitted effect of over 55% in size", "conditions": "yeast TDP-43 toxicity rescue, BacTiter-Glo growth, 24 h; series mostly up to 46.1 µM; growth rescue (activation): at the top concentration", "how_it_was_run": "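TDP-43-expressing yeast, pregrown in raffinose, seeded at OD600 0.02 in galactose medium with compound for 24 hr at 30 deg C. Growth read by BacTiter-Glo luminescence, so rescue of toxicity appears as activation.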", "values": [{"smiles": "Cc1nnsc1Sc1ccccn1", "growth rescue (activation)": "inactive: 13.3%"}, {"smiles": "COc1ccc(NC(=O)c2cc(-c3cccc(OC)c3)on2)cc1", "growth rescue (activation)": "inactive: -20.8%"}, {"smiles": "CCN(CC)C(=O)COc1ccc2c3c(c(=O)oc2c1)CCCC3", "growth rescue (activation)": "inactive: 9.73%"}, {"smiles": "O=C(CSc1nnnn1-c1ccccc1)Nc1ccc(Cl)cn1", "growth rescue (activation)": "inactive: -8.75%"}, {"smiles": "CCOC(=O)/C(C#N)=C/C1=C(N2CCOCC2)CC(C)(C)OC1", "growth rescue (activation)": "inactive: 15.5%"}, {"smiles": "COc1ccc(C(=O)O/N=C(\\N)c2ccccc2)cc1", "growth rescue (activation)": "inactive: -62.4%"}, {"smiles": "Cc1ccc(-c2cc(C(=O)Nc3cc(C(=O)O)ccc3C)c3ccccc3n2)cc1", "growth rescue (activation)": "inactive: -2.72%"}, {"smiles": "CN1CCN(c2nc3ccccn3c(=O)c2/C=C(\\C#N)S(=O)(=O)c2ccc(Cl)cc2)CC1", "growth rescue (activation)": "inactive: -2.84%"}, {"smiles": "O=C(COC(=O)c1ccc(O)cc1)Nc1ccc2c(c1)OCCO2", "growth rescue (activation)": "inactive: -14.1%"}, {"smiles": "O=C(N/N=C/c1ccco1)c1cc(=O)[nH]c2ccccc12", "growth rescue (activation)": "inactive: 5.72%"}, {"smiles": "CN1C=CC=C/C1=C1\\SC(=S)N(CC(=O)O)C1=O", "growth rescue (activation)": "inactive: 4.97%"}, {"smiles": "Cc1ccc(S(=O)(=O)N2CCN(C(=O)C3CCCC3)CC2)cc1C", "growth rescue (activation)": "inactive: 23.1%"}, {"smiles": "COc1cc(OC)cc(C(=O)Nc2ccc(C(=O)Nc3ccccc3OC)cc2)c1", "growth rescue (activation)": "inactive: -2.9%"}, {"smiles": "CC1CCN(S(=O)(=O)c2ccc3[nH]c(=O)[nH]c3c2)CC1", "growth rescue (activation)": "inactive: 11.3%"}, {"smiles": "COc1ccc(NC(=O)c2cc(=O)[nH]c(=O)[nH]2)cc1S(=O)(=O)Nc1ccccc1Cl", "growth rescue (activation)": "inactive: 15.6%"}, {"smiles": "C=CCOC(=O)c1c(C)nc2cc3c(cc2c1C)OCO3", "growth rescue (activation)": "inactive: 10.4%"}, {"smiles": "O=C(CN1C(=O)C(=O)N(Cc2ccccc2)C1=O)Nc1cc(Cl)cc(Cl)c1", "growth rescue (activation)": "inactive: -17.6%"}, {"smiles": "COc1ccc(C(N)=S)c(OC)c1", "growth rescue (activation)": "inactive: 3.02%"}, {"smiles": "O=Cc1cn(CC(=O)N2CCCCC2)c2ccccc12", "growth rescue (activation)": "inactive: 15.1%"}, {"smiles": "O=C(COC(=O)c1cccnc1Cl)NCc1cccs1", "growth rescue (activation)": "inactive: -7.13%"}, {"smiles": "Cc1ccccc1/C=N/Nc1nc2ccccc2[nH]1", "growth rescue (activation)": "inactive: -0.552%"}, {"smiles": "Cc1cc(C)c(NC(=O)COC(=O)C23CC4CC(CC(O)(C4)C2)C3)c(Cl)c1", "growth rescue (activation)": "inactive: 9.67%"}, {"smiles": "Cn1c(=O)n(C)c2cc(NS(=O)(=O)c3ccc(Cl)s3)ccc21", "growth rescue (activation)": "inactive: -12.5%"}, {"smiles": "COc1ccc(F)cc1-c1cc(C(=O)N2CCc3ccccc3C2)[nH]n1", "growth rescue (activation)": "inactive: 16%"}, {"smiles": "CCc1ccc(NC(=O)CCNC(=O)Cn2ccc3ccccc3c2=O)cc1", "growth rescue (activation)": "inactive: 7.88%"}, {"smiles": "Cc1ccccc1NC(=O)Cn1cc(C(=O)C2CC2)c2ccccc21", "growth rescue (activation)": "inactive: 1.89%"}, {"smiles": "O=C(CC(c1ccccc1)c1cc(Cl)ccc1O)N1CCCC1", "note": "(stereo not drawn)", "growth rescue (activation)": "inactive: -16.9%"}, {"smiles": "O=C1CCCC2=C1C(c1ccncc1)c1c(nc(SCc3ccccc3)[nH]c1=O)N2", "note": "(stereo not drawn)", "growth rescue (activation)": "inactive: -6.48%"}, {"smiles": "O=C(Cc1ccccc1[N+](=O)[O-])Nc1ccc2c(c1)OCCO2", "growth rescue (activation)": "inactive: 10.2%"}, {"smiles": "O=C(c1ccco1)N1CCN(C(=O)c2ccc(COc3ccc(F)cc3)o2)CC1", "growth rescue (activation)": "inactive: 10.4%"}, {"smiles": "CC(C)C(NS(=O)(=O)c1cccc(C(F)(F)F)c1)C(=O)N1CCc2ccccc2C1", "note": "(stereo not drawn)", "growth rescue (activation)": "inactive: 28.1%"}, {"smiles": "Cc1noc(C)c1S(=O)(=O)NC(=O)C1(C)CCN1C(=O)C1(c2ccc(Cl)cc2)CC1", "note": "(stereo not drawn)", "growth rescue (activation)": "inactive: -4.28%"}, {"smiles": "CC(=O)c1ccc(NC(=S)NCc2cccnc2)cc1", "growth rescue (activation)": "inactive: 2.8%"}, {"smiles": "CCc1cc2c(CN(C)Cc3ccccc3F)cc(=O)oc2cc1O", "growth rescue (activation)": "inactive: 9.08%"}, {"smiles": "COc1c(Cl)cc(Cl)cc1CNc1ccc(S(N)(=O)=O)cc1", "growth rescue (activation)": "inactive: 3.82%"}, {"smiles": "COc1cccc(NC(=O)Nc2nnc(N3C(C)CCCC3C)s2)c1", "note": "(stereo not drawn)", "growth rescue (activation)": "inactive: 3.32%"}, {"smiles": "CC(=O)Nc1ccc(NC(=O)c2c(C)nn(Cc3ccccc3)c2Cl)cc1", "growth rescue (activation)": "inactive: 11.8%"}, {"smiles": "Cn1c(N)c(C(=O)COC(=O)C2CC(O)CN2S(=O)(=O)c2ccc(Cl)cc2)c(=O)n(C)c1=O", "note": "(stereo not drawn)", "growth rescue (activation)": "inactive: -5.01%"}, {"smiles": "Cc1cc2c(ccc3c2no[n+]3[O-])nn1", "growth rescue (activation)": "inactive: 3.27%"}, {"smiles": "COc1ccc(CC(N)c2csc(NC(=O)Nc3ccccc3C(C)C)n2)cc1", "note": "(stereo not drawn)", "growth rescue (activation)": "inactive: -1.23%"}, {"smiles": "C=CCn1cc(C(=O)c2cc(Br)ccc2O)cc(C#N)c1=O", "growth rescue (activation)": "inactive: 25%"}, {"smiles": "COc1cc(OC)cc(C(=O)N[C@H](C(=O)NCc2ccc(F)cc2)C(C)C)c1", "growth rescue (activation)": "inactive: -6.52%"}, {"smiles": "CC1(C(=O)NS(=O)(=O)c2cccc(Cl)c2)CCN1C(=O)C1CCCCC1", "note": "(stereo not drawn)", "growth rescue (activation)": "inactive: 14.1%"}, {"smiles": "CCc1nc(C)cn1S(=O)(=O)c1ccc2c(c1)OCCO2", "growth rescue (activation)": "inactive: -3.34%"}, {"smiles": "CC(C(=O)O)N(C(=O)c1ccccc1)c1ccc(F)cc1", "note": "(stereo not drawn)", "growth rescue (activation)": "inactive: -1.54%"}, {"smiles": "O=C(Nc1ccc(S(=O)(=O)NCC2CCCO2)cc1)C1CC(=O)N(c2ccccc2)C1", "note": "(stereo not drawn)", "growth rescue (activation)": "inactive: 15.8%"}, {"smiles": "CC(=O)N1CCCN(Cc2cn(-c3ccc(C)cc3)nc2-c2ccc(F)cc2)CC1", "growth rescue (activation)": "inactive: 8.37%"}, {"smiles": "Cc1ccsc1C(=O)OCC(=O)Nc1cccc(S(=O)(=O)NC2=NCCCCC2)c1", "growth rescue (activation)": "inactive: 11.2%"}, {"smiles": "CN1CCC(N(C)S(=O)(=O)c2ccc(F)cc2F)CC1", "growth rescue (activation)": "inactive: -2.61%"}, {"smiles": "O=C(CCC(=O)Nc1ccc(Br)cc1)N/N=C/c1ccccc1O", "growth rescue (activation)": "inactive: 7.58%"}, {"smiles": "Cc1ccccc1COc1ccc2oc(C)c(C(=O)O)c2c1", "growth rescue (activation)": "inactive: 5.5%"}, {"smiles": "Cc1cc(C)cc(NC(=O)C2C3C=CC(O3)C2C(=O)O)c1", "note": "(stereo not drawn)", "growth rescue (activation)": "inactive: 6.35%"}, {"smiles": "CCc1nc2c(OCC(=O)N(C)C)cccn2c1N(C=O)Cc1ccc(OC)cc1", "growth rescue (activation)": "inactive: 6.76%"}]}]}
